In the supplement of paper PMC3334620:
The full ranking holds about 33,000 sequences; the median of “E-score (-0.5 to 0.5)” is about -0.053, and the highest 2% start at about 0.37. The list shows a part of the results.

The sequences below were run against Hap1 (UniProt P0CE41) (assay: PBM E-score (8-mer binding enrichment) (E-score (-0.5 to 0.5)); higher = stronger / more preferred TF binding; most listed sequences are background and not binding sites). Settings: protein concentration: 200 nM; construct: GST-DNA-binding domain.
In short: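 Yeast transcription factors, full-length or as DNA-binding domains, were expressed with a GST tag using PURExpress in vitro transcription/translation. At about 100-200 nM they were applied to universal all-10-mer Agilent arrays, double-stranded by primer extension on fresh or once-stripped slides. Fluorescent anti-GST detected bound protein, and masliner normalised the scans. E-scores for ungapped eight-base words, pooled with reverse complements, came from the Universal PBM Analysis Suite.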

Chain of UniProt P0CE41 (P0CE41 whole entry, the tested form may be a part): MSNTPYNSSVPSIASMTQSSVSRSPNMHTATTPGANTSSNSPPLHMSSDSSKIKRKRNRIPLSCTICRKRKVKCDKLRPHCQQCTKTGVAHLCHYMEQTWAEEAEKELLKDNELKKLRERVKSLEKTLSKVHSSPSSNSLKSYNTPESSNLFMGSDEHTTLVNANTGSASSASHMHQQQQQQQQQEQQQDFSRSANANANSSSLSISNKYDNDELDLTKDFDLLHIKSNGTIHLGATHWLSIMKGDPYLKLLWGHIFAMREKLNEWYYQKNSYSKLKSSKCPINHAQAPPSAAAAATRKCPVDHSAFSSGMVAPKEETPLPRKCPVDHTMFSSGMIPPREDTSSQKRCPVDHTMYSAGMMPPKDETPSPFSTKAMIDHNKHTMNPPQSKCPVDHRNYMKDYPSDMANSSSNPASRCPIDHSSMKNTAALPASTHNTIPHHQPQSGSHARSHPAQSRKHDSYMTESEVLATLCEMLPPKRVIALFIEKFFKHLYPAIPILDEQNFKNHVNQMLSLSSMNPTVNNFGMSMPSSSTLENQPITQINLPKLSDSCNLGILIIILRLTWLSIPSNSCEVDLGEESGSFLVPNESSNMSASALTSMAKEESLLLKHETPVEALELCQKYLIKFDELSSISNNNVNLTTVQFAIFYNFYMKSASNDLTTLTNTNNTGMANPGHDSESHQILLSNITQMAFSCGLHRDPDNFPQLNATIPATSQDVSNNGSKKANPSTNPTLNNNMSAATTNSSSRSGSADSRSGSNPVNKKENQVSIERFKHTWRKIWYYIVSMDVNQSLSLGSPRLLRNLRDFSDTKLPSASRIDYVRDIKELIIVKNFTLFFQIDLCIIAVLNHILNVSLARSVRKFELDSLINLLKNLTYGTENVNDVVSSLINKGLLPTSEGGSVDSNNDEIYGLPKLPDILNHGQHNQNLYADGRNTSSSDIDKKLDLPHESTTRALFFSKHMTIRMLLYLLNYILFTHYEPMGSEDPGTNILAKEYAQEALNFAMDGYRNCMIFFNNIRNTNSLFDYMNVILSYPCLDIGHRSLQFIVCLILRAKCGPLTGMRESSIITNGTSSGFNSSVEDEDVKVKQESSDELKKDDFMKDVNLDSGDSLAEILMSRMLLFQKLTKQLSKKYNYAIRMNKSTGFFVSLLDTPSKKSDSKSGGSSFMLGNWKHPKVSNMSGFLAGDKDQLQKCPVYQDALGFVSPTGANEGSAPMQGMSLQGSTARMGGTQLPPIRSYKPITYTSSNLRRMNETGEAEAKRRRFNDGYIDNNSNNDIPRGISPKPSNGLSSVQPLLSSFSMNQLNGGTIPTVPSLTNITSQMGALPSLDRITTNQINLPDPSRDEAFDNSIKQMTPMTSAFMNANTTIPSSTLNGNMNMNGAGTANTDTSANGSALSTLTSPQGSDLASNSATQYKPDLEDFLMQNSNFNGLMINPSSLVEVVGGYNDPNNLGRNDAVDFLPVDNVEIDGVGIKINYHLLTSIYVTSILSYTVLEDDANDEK

Sequence | PBM E-score
CCATTTTA | 0.177
GGAAGGCA | -0.144
CGTGGCCA | -0.199
AACTTTCT | 0.129
ATTTCTCC | 0.223
ATAGTAGC | 0.0136
ATAGACGA | -0.232
CCATGAAG | -0.132
GCGCACTA | 0.0752
GCGCGCCC | 0.146
AAGTGAAA | -0.0457
CTACAACA | -0.0881
ACTATTGC | 0.0581
GAAACATA | 0.00213
AGGATGTC | -0.0998
CGATGACA | -0.0139
CTGGCGGA | -0.0445
CTAGCCCA | -0.152
AGTTCAGA | -0.211
AGGACCTG | -0.0537
CGCTCACA | 0.00505
ATCAGCTA | -0.149
CCGTTTGA | 0.134
CCGTCTGA | -0.0177
ACTTAAGA | 0.112

Sequence | PBM E-score
GTGCGGCA | 0.0804
ACAATAGC | -0.13
TCAGGAGA | -0.0711
CCGTAACG | 0.169
GAGGGAAC | 0.0745
GAGGTAAA | 0.0266
ACGGTATA | 0.0727
GGAGAGCC | -0.00118
AACGTGTC | -0.127
CCGCTCAC | 0.0696
ATCCTGCC | -0.0978
ACGTTGGG | -0.249
GCTTACAC | -0.106
GGAACAAC | 0.192
AAAATTCC | 0.26
CACGAAGC | -0.0951
ACTTGCCT | -0.0546
GTTTCCCA | -0.134
GATGCGAC | 0.13
CGCGGCAC | 0.0706
GAAACGTA | -0.151
CCGAGGAC | 0.302
ACAGTCGT | -0.276
GAACAGCA | 0.0236
GTGGCGAA | 0.0646

Sequence | PBM E-score
ATGACAAC | -0.0114
GCTCAACA | -0.185
AAGCGACT | -0.223
TGCATAAA | -0.0692
GGTTGTCA | -0.136
AGGACCTC | -0.205
AAGACTCT | -0.297
GCATTTGA | 0.0798
ACTTCGTC | 0.0269
AGTTCCGA | 0.395
ACGGGGTA | -0.0439
CCGACTTC | 0.172
CCTATAGG | -0.0781
CACCGCCC | 0.275
CTTGCTGA | -0.178
CGCGAGTC | 0.105
CGAGTGTA | -0.109
ACACGGAT | 0.209
CTAGGACA | -0.22
ACAATACT | -0.0811
AAGCTTCA | -0.0857
CTTAATCA | 0.0547
AGCAGCGA | -0.0162
AACGTTGC | -0.099
ACGACATA | -0.279

Sequence | PBM E-score
GCAAACCC | 0.119
GTAAGGGA | 0.0397
AAACGGGT | 0.132
CTACGCAG | -0.145
CGTCTGGC | 0.00143
ATCGCAGC | -0.0973
GCTGTAAA | -0.311
ATACACAA | -0.109
AAACGGGG | 0.145
AGGCTCCG | 0.318
CCGGCAGC | 0.258
GAATTTAA | -0.0449
GTCGCCAA | -0.124
TCACAACA | -0.245
AAGAACTA | -0.00419
CATCTGTA | -0.224
AGTGGCTC | -0.193
AGGTACAG | -0.327
CACCAACA | -0.154
TCGAGTCA | -0.213
GATATTGA | 0.111
TAGAAACA | -0.182
ATATGACA | -0.202
CTACCACA | -0.162
CATGGCGA | -0.063

Sequence | PBM E-score
ATGTTGGG | -0.00446
CCGCCTGC | -0.144
CCACTCAA | -0.266
GGGGGAGA | 0.138
AGGACGGC | -0.176
AGCCGCGG | 0.291
ATTCGACA | -0.197
GCTAGGCA | -0.0444
ACACCTTC | 0.105
AGGAAGGA | -0.391
AACCCTTA | -0.158
TACAGCAA | -0.0896
AACTGAAC | -0.0611
CGGGTTCC | 0.262
CCAGCTGA | -0.152
CATAAAAC | 0.0538
ATCCCTGC | -0.0977
AATAATTC | 0.147
ACCCAGAA | -0.202
AGGACTAC | -0.157
AAATTAGG | 0.069
CAGGCACC | -0.237
ATTTAGGA | -0.132
AAGAGTCC | 0.109
GCCTCTGA | -0.294

Sequence | PBM E-score
ATAATGAA | -0.169
CTCGTCAG | -0.172
CCGCTCTC | 0.0913
ACATGCCA | -0.0718
CGCCTTGC | -0.032
TGACGTAA | -0.205
AGGATTTG | -0.207
CGTCTTAG | -0.205
ATAGCAGG | 0.0555
AACTCAGG | -0.116
CGCTGTAG | -0.00435
CGGTCCCC | 0.248
ACGCGGAG | 0.286
GACCAGAC | -0.143
AGGAGATA | 0.253
GGGCCGTA | 0.187
TCTCTTCA | 0.0192
AAAGCCTA | -0.199
CTCCCCAG | -0.199
ATGTGTTA | -0.198
TAGGTGAA | -0.00535
CTAGGGCA | -0.305
AGTCTCGC | -0.133
AACGGCAA | 0.0886
GCGACCAA | -0.0589

Sequence | PBM E-score
CGCGTAAA | 0.188
CATTCATA | 0.0229
ACCCTAAG | -0.192
CCTGCACA | -0.248
ATGCATAA | -0.256
CCCGGTAC | 0.296
CTTGGTGC | -0.218
ATGCATCC | 0.0722
GAATCCTA | -0.0221
CTTCCGCA | 0.128
CTGGAAAG | -0.166
ACATATCA | -0.053
CGAGTGGC | 0.0984
CTATGGAA | -0.0331
ACCTTGGC | 0.0492
CAAACATG | -0.284
CTTGGTTC | -0.101
CACAATAC | -0.127
ACGTCGTC | 0.0183
AGCCAAAA | -0.131
AGTTCGTA | 0.0523
TGCGTCCA | -0.0664
